Test results: patent US10925856B2, “Methods and compositions involving bucindolol for the treatment of atrial fibrillation” (priority 2018, dated 2021)

System: HFrEF patients with the ADRB1 Arg389Arg genotype
Assay: GENETIC-AF secondary and heart failure endpoints (VT/VF/SVT, hospitalization, ACM)
Type: in vivo
[1] = Entire cohort, Total Study Period
[2] = Entire cohort, Total Study Period, listed as Bucindolol
[3] = GENETIC-AF U.S. LVEF ≤0.35, 24 week follow-up
[4] = GENETIC-AF U.S. LVEF ≤0.35, bucindolol vs metoprolol, unadjusted
[5] = GENETIC-AF, all randomized patients
[6] = − PM (CYP2D6 PMs excluded), LVEF <0.39 or LVEF 0.39-0.49 with HF Duration - AF Duration >= −30 days

CC(C)(Cc1c[nH]c2ccccc12)NCC(O)COc1ccccc1C#N (centres unmarked) [bucindolol, 2-(3-(1-(1H-indol-3-yl)-2-methylpropan-2-ylamino)-2-hydroxypropoxy)benzonitrile]
HF hospitalization [1]: 7.5% | HF hospitalization, number of patients [1]: 10 | ACM or HF hospitalization [2]: (8%) | HF hospitalization [2]: (7.5%) | ACM events [3]: 0 (0%) | ACM events/pts (%) [3]: 0 (0%) | ACM/CVH events [3]: 3 | ACM/CVH events/pts (%) [3]: 5.0% | ACM/HFH events [3]: 2 | ACM/HFH events/pts (%) [3]: 3.3% | CVH events [3]: 3 | CVH events/pts (%) [3]: 5.0% | CVM events [3]: 0 (0%) | CVM events/pts (%) [3]: 0 (0%) | CVM/HFH events [3]: 2 | CVM/HFH events/pts (%) [3]: 3.3% | HFH events [3]: 2 | HFH events/pts (%) [3]: 3.3% | ACM/CVH HzR [4]: 0.56 | ACM/HFH HzR [4]: 0.74 | CVH HzR [4]: 0.84 | CVM/HFH HzR [4]: 2.21 | HFH HzR [4]: 2.21 | All-cause hospitalization [5]: 20.1% | All-cause mortality [5]: 2.3% | Cardiovascular hospitalization [5]: 12.7% | Cardiovascular mortality [5]: 0.7% | Heart failure hospitalization [5]: 6.7% | Heart failure mortality [5]: 0.0% | AF/AFL/ACM or HF Hospitalization during Total Study Period (U.S.): (70.0%) | Total All-cause Hospitalization during Total Study Period (U.S.): 3.3 ± 9.6 days/patient | VT, VF or Sx SVT during the 24-Week Follow-up Period (U.S.): (1.7%) | ACM (U.S., Total Study Period): (5.0%) | ACM or HF hospitalization (U.S., Total Study Period): (13.3%) | ACM or HF hospitalization, number of patients (U.S., Total Study Period): 8 | ACM, number of patients (U.S., Total Study Period): 3 | HF hospitalization (U.S., Total Study Period): (10.0%) | HF hospitalization, number of patients (U.S., Total Study Period): 6 | All-cause hospitalization, % of patients (in vivo): (20%) | All-cause hospitalization, number of patients (in vivo): 27 | Cardiovascular hospitalization, % of patients (in vivo): (13%) | Cardiovascular hospitalization, number of patients (in vivo): 17 | Heart failure hospitalization, % of patients (in vivo): (7%) | Heart failure hospitalization, number of patients (in vivo): 9 | Symptomatic SVT, % of patients (in vivo): (0%) | Symptomatic SVT, number of patients (in vivo): 0 | VT >=15 sec or Required Therapy, % of patients (in vivo): (2%) | VT >=15 sec or Required Therapy, number of patients (in vivo): 3 | Ventricular Flutter, % of patients (in vivo): (1%) | Ventricular Flutter, number of patients (in vivo): 1 | All-cause mortality, % of patients (total study period): (2%) | All-cause mortality, number of patients (total study period): 3 | Cardiovascular mortality, % of patients (total study period): (1%) | Cardiovascular mortality, number of patients (total study period): 1 | Heart failure mortality, % of patients (total study period): (0%) | Heart failure mortality, number of patients (total study period): 0 | ACM or HF hospitalization 24-wk f/u, % of patients [6]: 4 (4%) | ACM or HF hospitalization 24-wk f/u, number of patients [6]: 4 (4%) | ACM or HF hospitalization total f/u, % of patients [6]: 9 (9%) | ACM or HF hospitalization total f/u, number of patients [6]: 9 (9%) | ACM, total f/u (11.3 mos), % of patients [6]: 2 (2%) | ACM, total f/u (11.3 mos), number of patients [6]: 2 (2%) | All-cause mortality (ACM), 24-week f/u, % of patients [6]: 0.0% | All-cause mortality (ACM), 24-week f/u, number of patients [6]: 0 | HF hospitalization 24-week f/u, % of patients [6]: 4 (4%) | HF hospitalization 24-week f/u, number of patients [6]: 4 (4%) | HF hospitalization total f/u, % of patients [6]: 8 (8%) | HF hospitalization total f/u, number of patients [6]: 8 (8%)
